Data reported in the supplement of paper PMC12217912.
The list shows a part of the results. The full chains were built here from the parent and the listed change. Inactive controls read about 0.05.

B1: TEV protease; numbered along this chain (parent)
chain: MGESLFKGPRDYNPISSSICHLTNESDGHTTSLYGIGFGPFIITNKHLFRRNNGTLVVQSLHGVFKVKDTTTLQQHLVDGRDMIIIRMPKDFPPFPQKLKFREPQREERICLVTTNFQTKSMSSMVSDTSCTFPSGDGIFWKHWIQTKDGQCGSPLVSTRDGFIVGIHSASNFTNTNNYFTSVPKNFMELLTNQEAQQWVSGWRLNADSVLWGGHKVFMVKPEEPFQPVKEATQL

Variants of: B1
Test: raw area under fraction-flipped curve 0-4 h after induction (AUC4h, not background-subtracted), DNA-recorder readout of cleavage of the substrate (dimensionless); higher = more cleavage of the substrate by the protease variant
Conditions: temperature: 34 °C; time window: 0-4 h after rhamnose induction
Procedure: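 In vivo DNA recorder in E. coli TOP10(DE3) ΔrhaA at 34 °C. Each TEVp single-site mutant (parent TEVp 0) is paired with a single-site variant of the 7-mer TEVs (canonical ENLYFQ|S). The substrate sits between flexible linkers in a Bxb1-sfGFP-TEVs-SsrA fusion, so cleavage stabilises Bxb1 and speeds flipping of a recombination array, read by NGS. The value is the raw area under the fraction-flipped curve over 0-4 h after rhamnose induction (AUC4h), with ≥20 reads per time point. It is not background-subtracted; inactive controls average about 0.047.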
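Also: Bxb1 expression induced with 0.2% (w/v) L-rhamnose at OD600 near 0.5, cultures sampled hourly, flipped fraction per protease–substrate barcode pair counted by paired-end Illumina sequencing.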

Variant	area with substrate ENLYAQS	area with substrate ENLYDQS	area with substrate ENLYEQS	area with substrate ENLYGQS	area with substrate ENLYHQS	area with substrate ENLYKQS	area with substrate ENLYLQS	area with substrate ENLYMQS	area with substrate ENLYNQS	area with substrate ENLYPQS	area with substrate ENLYQQS	area with substrate ENLYSQS	area with substrate ENLYTQS	area with substrate ENLYVQS	area with substrate ENLYWQS	area with substrate ENLYYQS	area with substrate ENLYCQS	area with substrate ENLYIQS	area with substrate ENLYRQS
MGESLFKGPRDYNPISSSICHLTNESDGHTTSLYGIGFGPFIITNKHLFRRNNGTLVVQSLHGVFKVKDTTTLQQHLVDGRDMIIIRMPKDFPPFPQKLKFREPQREERICLVTTNFQTKSMSSMVSDTSCTFPSGDGIFWKHWIQTKDGQCGSPLVSTRDGFYVGIHSASNFTNTNNYFTSVPKNFMELLTNQEAQQWVSGWRLNADSVLWGGHKVFMVKPEEPFQPVKEATQL [I164Y]	0.0767	0.0491	0.0605	0.0653	0.0518	0.0465	0.057	0.0662	0.0505	0.0583	0.0783	0.0505	0.0604	0.0541	0.0465	0.0472	–	–	–
MGESLFKGWRDYNPISSSICHLTNESDGHTTSLYGIGFGPFIITNKHLFRRNNGTLVVQSLHGVFKVKDTTTLQQHLVDGRDMIIIRMPKDFPPFPQKLKFREPQREERICLVTTNFQTKSMSSMVSDTSCTFPSGDGIFWKHWIQTKDGQCGSPLVSTRDGFIVGIHSASNFTNTNNYFTSVPKNFMELLTNQEAQQWVSGWRLNADSVLWGGHKVFMVKPEEPFQPVKEATQL [P9W]	0.0682	0.0634	0.0697	–	0.0678	0.0599	0.113	0.0812	0.0692	0.0462	0.0784	0.0823	0.0325	0.118	0.0764	0.0692	0.0996	0.114	0.0619
MGESLFKGPRDYNPISSSICHLTNESDGHTTSLYGIGFGPFIITNKHLFRRNNGTLVVQSLHGVFKVKDTTTLQQHLVDGRDMIIIRMPKDFPPFPQKLKFREPQREERICLVTTNFQTKSMSSMVSDTSCTFPSGDGIFWKHWIQTKDGQCGSPLVSTRDGFIVGIHSASNFTNTNNYFTSVPKNFMELLTNQEAQQWVSGWRLNADSVLWGAHKVFMVKPEEPFQPVKEATQL [G214A]	0.0688	0.0591	0.0269	0.0654	0.0597	–	0.0454	0.0783	0.0529	–	–	–	–	0.0734	–	–	–	–	–
MGESLFKGPRDYNPISRSICHLTNESDGHTTSLYGIGFGPFIITNKHLFRRNNGTLVVQSLHGVFKVKDTTTLQQHLVDGRDMIIIRMPKDFPPFPQKLKFREPQREERICLVTTNFQTKSMSSMVSDTSCTFPSGDGIFWKHWIQTKDGQCGSPLVSTRDGFIVGIHSASNFTNTNNYFTSVPKNFMELLTNQEAQQWVSGWRLNADSVLWGGHKVFMVKPEEPFQPVKEATQL [S17R]	0.0569	0.0624	0.0583	0.0671	0.0618	0.0551	–	0.0897	0.0722	0.0749	–	0.0768	0.0905	0.138	0.0862	0.0638	–	0.178	–
MGESLFKGPRDYNPISSSICHLTNESDGHTTSLYGIGFGPFIITNKHLFRRNNGTLVVQSLHGVFKVKDTTTLQQHLVDGRDMIIIRMPKDFPPFPQKLKFREPQREERICLVTTNFQTKSMSSMVSDTSCTFPSGDGIFWKHWIQTKDGQCGSPLVSTRDGFTVGIHSASNFTNTNNYFTSVPKNFMELLTNQEAQQWVSGWRLNADSVLWGGHKVFMVKPEEPFQPVKEATQL [I164T]	0.0442	0.066	0.0633	0.0585	0.0587	0.0512	–	0.0498	0.063	0.0689	0.0448	0.0659	–	0.0969	0.0601	–	–	0.0753	0.0456
MGESLFKGPRDYNPISSSICHLTNESDGHTTSLYGIGFGPFIITNKHLFRRNNGTLVVQSLHGVFKVKDTTTLQQHLVDGRDMIIIRMPKDFPPFPQKLKFREPQREERICLVTTNFQTKSMSSMVSDTSCTFPSGDGIFWKHWIQTKDGQCGSPLVSTRDGFIVGIHSASNFTNTNNYFTAVPKNFMELLTNQEAQQWVSGWRLNADSVLWGGHKVFMVKPEEPFQPVKEATQL [S182A]	0.0835	–	0.083	0.0342	0.0625	0.0671	–	–	0.0962	0.0989	0.0985	–	–	–	–	0.0805	–	–	–
MGESLFKGPRDYNPISSSICHLTNESDGHTTSLYGIGFGPFIITNKHLFRRNNGTLVVQSLHGVFKVKDTTTLQQHLVDGRDMIIIRMPKDFPPFPQKLKFREPQREERQCLVTTNFQTKSMSSMVSDTSCTFPSGDGIFWKHWIQTKDGQCGSPLVSTRDGFIVGIHSASNFTNTNNYFTSVPKNFMELLTNQEAQQWVSGWRLNADSVLWGGHKVFMVKPEEPFQPVKEATQL [I110Q]	0.0496	0.051	0.0696	–	0.0507	–	0.0589	0.0559	0.0567	0.0618	0.0682	–	0.0683	–	0.0567	0.0677	–	0.0491	0.0585
MGESLFKGPRDYNPISSSICHLTNESDGHTTSLYGIGFGPFIITNKHLFRRNNGTLVVQSLHGVFKVKDTTTLQQHLVDGRDMIIIRMPKDFPPFPQKLKFREPQREERICLVTTNFQTKSMSSMVSDTSCTFPSGDGIFWKHWIQTKDGQCGSPLVSTRDGFIVGIHSASNFTNTNNYFTSVPKEFMELLTNQEAQQWVSGWRLNADSVLWGGHKVFMVKPEEPFQPVKEATQL [N186E]	0.0677	–	0.0722	0.0583	0.0899	–	–	–	0.0711	–	0.0577	0.0752	–	0.112	–	–	–	0.15	0.0415
MGESLFKGPRDYNPISSSICHLTNESDGHTTSLYGIGFGPFIITNKHLFRRNNGTLVVQELHGVFKVKDTTTLQQHLVDGRDMIIIRMPKDFPPFPQKLKFREPQREERICLVTTNFQTKSMSSMVSDTSCTFPSGDGIFWKHWIQTKDGQCGSPLVSTRDGFIVGIHSASNFTNTNNYFTSVPKNFMELLTNQEAQQWVSGWRLNADSVLWGGHKVFMVKPEEPFQPVKEATQL [S60E]	0.0557	0.0586	0.0392	0.0586	0.0577	0.0876	–	0.0646	0.0437	0.0518	0.0455	0.0486	0.0463	–	0.0537	0.0551	–	0.0709	–
